Laboratory results: the supplement of paper PMC2702839
Structures can show the parent of a compound that is named as a salt. This is one part of the list.

These compounds were tested on Schistosoma mansoni schistosomula (assay: phenotypic hit in primary schistosomula screen (any phenotype vs DMSO control) (binary (1 = hit, 0 = no phenotype)); higher = active (phenotype induced)). Conditions: 1 µM; time (d): 7.

SMILES	phenotypic hit
CCN1C[C@]2(C)CC[C@H](OC)[C@@]34C1[C@]1(OCO[C@@]15C[C@H](OC)[C@H]1C[C@]3(O)[C@@H]5[C@H]1OC)[C@@H](OC(C)=O)[C@H]24 [deltaline]	inactive: 0
CC(C)=CCOc1c2occc2cc2ccc(=O)oc12 [imperatorin]	inactive: 0
N[C@@H](Cc1ccc(N(CCCl)CCCl)cc1)C(=O)O [melphalan]	inactive: 0
COC(=O)/C(C)=C\CC12OC(C)(C)C3CC(C=C4C(=O)c5c(OC)c6c(c(CC=C(C)C)c5OC431)OC(C)(CCC=C(C)C)C=C6)C2=O (stereo not given) [dimethyl gambogate]	active: 1
CC(C)N(CCC(C(N)=O)(c1ccccc1)c1ccccn1)C(C)C (stereo not given) [Disopyramide phosphate]	inactive: 0
COP(N)(=O)SC (stereo not given) [methamidophos]	inactive: 0
CC[C@@]1(O)C[C@H](O[C@H]2C[C@H](N(C)C)[C@H](O)[C@H](C)O2)c2c(cc3c(c2O)C(=O)c2c(O)cccc2C3=O)[C@H]1C(=O)OC [aklavine hydrochloride]	active: 1
C[C@H](N)[C@H](O)c1ccc(O)c(O)c1 [levonordefrin]	inactive: 0
CN1[C@@H]2CC[C@H]1C[C@@H](OC(=O)[C@H](CO)c1ccccc1)C2 [hyoscyamine]	inactive: 0
CCOP(=S)(OCC)SCSP(=S)(OCC)OCC [ethion]	inactive: 0
ClC1=C(Cl)C2(Cl)C3C(Cl)C(Cl)CC3C1(Cl)C2(Cl)Cl (stereo not given) [chlordane]	inactive: 0
CNC(=O)O/N=C/C(C)(C)SC [aldicarb]	inactive: 0
O=[N+]([O-])c1cc(O)c(O)c([N+](=O)[O-])c1 [3,5-Dinitrocatechol]	inactive: 0
COc1cc2c(cc1OC)C(=O)c1ccc(OC)c(OC)c1OCC(=O)C2 [haematoxylone, tetramethyl-]	inactive: 0
Cc1cc(O)ccc1Cl [chlorocresol]	inactive: 0
CCCN(CCC)c1c([N+](=O)[O-])cc(C(F)(F)F)cc1[N+](=O)[O-] [trifluralin]	inactive: 0
CC(=O)O[C@H]1C[C@@H](OC(C)=O)C(C)(C)C2C[C@@H](OC(C)=O)[C@]3(C)C(CC[C@@]4(C)[C@H](c5ccoc5)C(=O)[C@H]5O[C@]543)[C@]21C (stereo not given in full) [khayanthone]	inactive: 0
C=C(C)[C@H]1CN[C@H](C(=O)O)[C@H]1CC(=O)O [kainic acid]	inactive: 0
CC(C)N(C(=O)CCl)c1ccccc1 [propachlor]	inactive: 0
C[C@@H]1CC[C@@]2(OC1)O[C@H]1[C@@H](O)[C@H]3[C@@H]4CC[C@H]5C[C@@H](O[C@@H]6O[C@H](CO)[C@H](O[C@@H]7O[C@H](CO)[C@@H](O)[C@H](O[C@@H]8OC[C@@H](O)[C@H](O)[C@H]8O)[C@H]7O[C@@H]7O[C@H](CO)[C@H](O)[C@H](O[C@@H]8O[C@H](CO)[C@@H](O)[C@H](O)[C@H]8O)[C@H]7O)[C@H](O)[C@H]6O)[C@H](O)C[C@]5(C)[C@H]4CC[C@]3(C)[C@H]1[C@@H]2C [digitonin]	active: 1

SMILES	phenotypic hit
CC(C)=CCCC1(C)C=Cc2c(O)c3c(c(CC=C(C)C)c2O1)OC12C(CC4CC1C(C)(C)OC2(C/C=C(/C)C(=O)O)C4O)C3=O (stereo not given) [tetrahydrogambogic acid]	inactive: 0
CC[C@H]1CN2CC[C@H]1C[C@@H]2[C@@H](O)c1ccnc2ccc(OC)cc12 [hydroquinidine]	inactive: 0
C=C[C@H]1CN2CC[C@H]1C[C@H]2[C@H](OC(=O)OCC)c1ccnc2ccc(OC)cc12 [quinine ethyl carbonate]	inactive: 0
CC(=O)Oc1c2c(c(CC=C(C)C)c3c1C(=O)C1=C[C@@H]4CC5C(C)(C)OC(C/C=C(\C)C(=O)O)(C4=O)[C@@]15O3)OC(C)(CCC=C(C)C)C=C2 (stereo not given in full) [acetyl isogambogic acid]	active: 1
N#C/C(=C\c1cccc(O)c1)C(=O)O [alpha-cyano-3-hydroxycinnamic acid]	inactive: 0
O=C([O-])c1ccccc1-c1c2cc(Br)c(=O)cc-2oc2[c]([Hg+])c([O-])c(Br)cc12.[Na+].[Na+].[OH-] [merbromin]	inactive: 0
CC(=O)O[C@@H]1C[C@@]2(C)[C@H](c3ccoc3)C[C@H]3O[C@]32[C@]2(C)C(=O)C(O)=C3C(C)(C)C(=O)C=C[C@]3(C)[C@@H]12 [anthothecol]	inactive: 0
O=c1[nH]c2ccccc2n1CCCN1CCC(n2c(=O)[nH]c3cc(Cl)ccc32)CC1 [Domperidone]	inactive: 0
COP(=S)(OC)Oc1ccc(SC)c(C)c1 [fenthion]	inactive: 0
COP(=S)(OC)SCn1nnc2ccccc2c1=O [azinphos methyl]	inactive: 0
C#C[C@]1(O)CC[C@H]2[C@@H]3CCC4=CC(=O)CC[C@]4(C)[C@H]3CC[C@@]21C [ethisterone]	inactive: 0
CC(C)[N+](C)(CCC(C(N)=O)(c1ccccc1)c1ccccc1)C(C)C [isopropamide iodide]	inactive: 0
CC(C)CC(N(C)C)C1(c2ccc(Cl)cc2)CCC1 (stereo not given) [sibutramine hydrochloride]	inactive: 0
COc1ccc(CC2c3cc(OC)c(OC)cc3CCN2C)cc1OC (stereo not given) [laudanosine]	inactive: 0
NC(N)=NOCC[C@H](N)C(=O)O [canavanine]	inactive: 0
COC(=O)COc1ccc(Cl)cc1Cl [2,4-dichlorophenoxyacetic acid, methyl ester]	inactive: 0
C[C@]12CC[C@H]3[C@@H](CC[C@]4(O)C[C@@H](O)CC[C@]34C=O)[C@@]1(O)CC[C@@H]2C1=CC(=O)OC1 [strophanthidin]	inactive: 0
COc1ccc2c(c1)[C@]13CCCC[C@@H]1[C@H](C2)N(C)CC3 [dextromethorphan hydrobromide]	inactive: 0
CCC(C)C(=O)c1c(O)c(C)c2oc3c(C)c(O)c(C(=O)C(C)CC)c(O)c3c2c1O (stereo not given) [rhodomyrtoxin b]	active: 1
C[C@H]1O[C@@H](O[C@H]2[C@@H](O)C[C@H](O[C@H]3[C@@H](O)C[C@H](O[C@H]4CC[C@@]5(C)[C@H](CC[C@@H]6[C@@H]5CC[C@]5(C)[C@@H](C7=CC(=O)OC7)[C@@H](O)C[C@]65O)C4)O[C@@H]3C)O[C@@H]2C)C[C@H](O)[C@@H]1O [gitoxin]	inactive: 0
